These results are taken from PubChem BioAssay AID1645887 (National Center for Advancing Translational Sciences (NCATS), 2021).

Values joined by “and” are separate entries in the source; they are usually repeats but may differ in a detail not shown here. Equal entries are not always repeated. About 40 (0.2%) of roughly 16,000 compounds were called active. About 1% were inconclusive and are not listed. Calls come from the whole dose curve; as a rule, active = well fitted activation curve with a large enough effect; inconclusive = small, poorly fitted or top-dose-only effect, or another doubt; inactive = no such curve, though single readings can be large or run the other way. Some of the results follow.
% is set by controls: 0 for no effect and ±100 for the full control effect.

This experiment has as its target Rap guanine nucleotide exchange factor 4 (Homo sapiens) (UniProt Q8WZA2). Kind of experiment: Validation qHTS for agonist of cAMP-regulated guanine nucleotide exchange factor 4 (EPAC2).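 Note: exchange makes BODIPY-GDP fluorescence drop when released from Rap1B; series mostly up to about 150 µM.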 The settings on record: EPAC2 Rap1B BODIPY-GDP exchange, fluorescence; activation: hits give high values. The gist of the method: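 Signal normalized against 6.5 mM cAMP as agonist control. Mix of EPAC2 (100 nM), RAP1B-BODIPY-GDP (250 nM) and GDP (50 uM) was read kinetically at 480/540 nm, every 5 min over 30 min, after 5 min room-temperature incubation with compound.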
Chain of UniProt Q8WZA2 (Q8WZA2 whole entry, looked up): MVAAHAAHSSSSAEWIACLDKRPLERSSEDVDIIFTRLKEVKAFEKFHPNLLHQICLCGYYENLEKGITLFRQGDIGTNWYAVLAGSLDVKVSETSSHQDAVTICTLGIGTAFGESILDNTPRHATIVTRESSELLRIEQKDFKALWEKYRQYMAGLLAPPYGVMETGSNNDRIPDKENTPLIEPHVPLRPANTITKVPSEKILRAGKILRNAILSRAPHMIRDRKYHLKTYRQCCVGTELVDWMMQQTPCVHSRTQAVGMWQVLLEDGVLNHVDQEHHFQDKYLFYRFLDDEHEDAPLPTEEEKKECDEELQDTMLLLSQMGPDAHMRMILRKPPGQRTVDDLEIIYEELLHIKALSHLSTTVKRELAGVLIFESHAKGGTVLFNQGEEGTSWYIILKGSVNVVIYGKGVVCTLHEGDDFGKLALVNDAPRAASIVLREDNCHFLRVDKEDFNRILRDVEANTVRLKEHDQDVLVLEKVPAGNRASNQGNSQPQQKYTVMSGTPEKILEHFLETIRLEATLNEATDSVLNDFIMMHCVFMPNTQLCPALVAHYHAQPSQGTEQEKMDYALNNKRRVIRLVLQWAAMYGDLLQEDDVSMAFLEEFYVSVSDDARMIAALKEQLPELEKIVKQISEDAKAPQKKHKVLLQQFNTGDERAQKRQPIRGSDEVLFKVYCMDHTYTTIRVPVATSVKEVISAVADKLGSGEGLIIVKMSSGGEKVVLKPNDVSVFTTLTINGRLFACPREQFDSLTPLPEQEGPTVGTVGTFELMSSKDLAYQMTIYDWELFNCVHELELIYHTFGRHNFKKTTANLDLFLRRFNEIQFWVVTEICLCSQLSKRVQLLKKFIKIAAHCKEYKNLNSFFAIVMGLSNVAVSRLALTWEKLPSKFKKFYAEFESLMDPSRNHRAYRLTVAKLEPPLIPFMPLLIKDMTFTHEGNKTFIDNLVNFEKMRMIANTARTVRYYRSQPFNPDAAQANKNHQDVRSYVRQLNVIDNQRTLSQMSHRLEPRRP
On to `O=C(c1cnccn1)N1CCC[C@@]2(CCN(Cc3nccs3)C2)C1`, for which the activation is inactive: -13.4%.
To `CC1=C(C(=O)OCc2ccccc2)N2C(=O)[C@@H](NC(=O)COc3ccccc3)[C@H]2SC1` belongs inactive: -9.76%; to `COc1c2c(cc3c1C(NC(N)=O)[N+](C)(C)CC3)OCO2` (centres undefined), inactive: -3.4%; to `CCCCC/C=C\C/C=C\C/C=C\C=C\[C@@H](O)CCCC(=O)O`, inactive: 2.77%.
Take `CCCCCCCCCCCCCCC[C@H](O)[C@@H](N)CO`: the activation is inactive: -7.41% and inactive: 7.27%.
Under `COc1ccc(Oc2ncc3ncc(=O)n(Cc4cccc(OC)c4)c3n2)cc1` stands inactive: 1.04%.
Under `COC(=O)CCC(C)C1CCC2C3C(O)C[C@@H]4CC(O)CC[C@@]4(C)C3CC(O)[C@]12C` (some centres undefined) stands inactive: -17.8%; under `C[C@H]1CN(CCc2ccccc2)C(=O)[C@@H]1CC(=O)NCc1ccccc1`, inactive: -6.92%.
For the molecule `COc1cccc(-c2cc(NCc3ccccc3OC)ncn2)c1`, the activation is inactive: 12.6%.
As for `CCCCN(CCCC)CC(O)c1cc(Cl)cc2c1-c1ccc(Cl)cc1/C2=C/c1ccc(Cl)cc1` (centres undefined), the activation was inactive: -0.0196%.
To `COc1cc2[nH]c(C)c(CCN3CCN(c4ccccc4)CC3)c2cc1OC` belongs inactive: 7.1%; to `Cc1cc(O)cc(C)c1Cl`, inactive: -15.3% and inactive: -5.75%; to `Cc1noc(C)c1-c1cc(Nc2ccccc2)ncn1`, inactive: -22.3%.
To `C[C@@H]1CCC[C@H](C)N1` belongs inactive: -9.63%.
As to `Oc1cccc(O)c1`, the activation was inactive: -12.1% and inactive: -12.4%.
Take `O=C(Nc1nccs1)[C@@H]1CC=C[C@@H]2CCN(C3CC3)C(=O)[C@@H]21`: the activation was inactive: -19.1%.
Consider `O=C1C=CC(=O)c2c(O)c(Cl)c(Cl)c(O)c21`, for which the activation is inactive: -16.4%.
Under `COc1cc2c(cc1O)-c1ccccc1CN(C)C2` stands inactive: -13.8%; under `CCC(=O)OCC(=O)[C@@]1(OC(=O)CC)[C@H](C)C[C@H]2[C@@H]3CCC4=CC(=O)C=C[C@]4(C)[C@@]3(F)[C@@H](O)C[C@@]21C`, inactive: -3.83%; under `COC(=O)N1CCC2(CC1)CCN(c1ccccn1)CC2`, inactive: -2.59%.
Under `Cc1nc2cnc(N3CCN(C)CC3)nc2n(Cc2ccc(F)cc2)c1=O` stands inactive: 6.43%; under `COc1cc(C2=N/C(=C\c3ccccc3)C(=O)O2)cc(OC)c1OC`, inactive: -12%; under `COC(=O)CCC(=O)CN`, inactive: -9.95%.
Under `C[C@@H]1CCC(=O)N(C[C@@H](C)CSc2ccccc2)CC1` stands inactive: -34.9%.
In the case of `Clc1ccccc1CNCC1CCC(CNCc2ccccc2Cl)CC1` (centres undefined), the activation was inactive: -8.47%.
Under `C=C1CCC(C2CC(=O)OC2=O)C(=O)CCC2C1CC2(C)C` (centres undefined) stands inactive: -3.18%; under `CCC(=O)N[C@@H]1Cc2ccccc2[C@@H](c2ccccc2)C1`, inactive: -19.1%; under `O=C(O)c1cc(=O)c2c(Cl)cc(Cl)cc2[nH]1`, inactive: -9.62% [middle of 4 runs].
Under `CC1(C)S[C@@H]2[C@H](NC(=O)C3(N)CCCCC3)C(=O)N2[C@H]1C(=O)O` stands inactive: 5.29%.
For `O=C(O)c1ccccc1S`, the activation is inactive: -5.86%.
Under `CN(C)c1ncc2nc(-c3cc(F)cc(F)c3)c(=O)n(CCC#N)c2n1` stands inactive: -5.46%.
To `COC(=O)N1CCC[C@@]2(CCN(c3ccccc3)C2)C1` belongs inactive: 4.39%.
In the case of `C1CCc2nnnn2CC1`, the activation was inactive: -21.1% and inactive: -4.99% and inactive: -42.1%.
To `c1cncc(CNc2cc(-c3ccc4c(c3)OCO4)ncn2)c1` belongs inactive: -10.6%; to `Cn1cccc1C(=O)N1CCC[C@@]2(CCN(Cc3ccc(C#N)cc3)C2)C1`, inactive: -9.11%; to `COc1ccc2cc(CN(C(=O)c3cc(C)nn3C)C3CC3)c(-c3ccc(Cl)cc3)nc2c1`, inactive: 8.83%.
To `O=[N+]([O-])c1ccc(CSc2ncnc3c2ncn3[C@@H]2O[C@H](CO)[C@@H](O)[C@H]2O)cc1` belongs inactive: -18%; to `CNC[C@@H](O)[C@@H](O)[C@H](O)[C@H](O)CO`, inactive: -3.34%; to `O=Nc1ccc2oc(=O)ccc2c1`, inactive: -41.2%.
With `CC[C@H]1OC(=O)[C@H](C)[C@@H](O[C@H]2C[C@@](C)(OC)[C@@H](O)[C@H](C)O2)[C@H](C)[C@@H](O[C@@H]2O[C@H](C)C[C@H](N(C)C)[C@H]2O)[C@](C)(O)C[C@H](C)C(=NOCOCCOC)[C@H](C)[C@@H](O)[C@]1(C)O`, the activation is inactive: -4.72%.
In the case of `O=S(=O)(c1ccccc1)N1CCC2(CCCN(Cc3ccncc3)C2)CC1`, the activation is inactive: -9.24%.
For the molecule `CC(N)CCCC(C)(C)O` (centres undefined), the activation is inactive: 6.8%.
On to `Cn1cc(-c2nc3cnc(Oc4ccccc4)nc3n(C3CC3)c2=O)c2ccccc21`, for which the activation was inactive: -0.893%.
Regarding `CCCCC[C@H](O)/C=C/[C@@H]1[C@H]2C/C(=C/CCCC(=O)O)C[C@H]2C[C@H]1O`, the activation was inactive: -8.43%.
Under `COc1cccc(Nc2ncc3ncc(=O)n(Cc4ccc(F)cc4)c3n2)c1` stands inactive: -23.6%; under `CCCOc1ccc2nc(NC(=O)OC)sc2c1`, inactive: 7%.
To `N#CCC(=O)NN` belongs inactive: -22.5%.
To `CC(=C(CCOP(=O)(O)O)SC(=O)c1ccccc1)N(C=O)Cc1cnc(C)nc1N` belongs inactive: -8.33%.
Regarding `Cc1cccc(C)c1NC(=O)CN1CCCC1`, the activation was inactive: -11.9%.
In the case of `O=C(c1ccco1)N1CCC2(CC1)CCN(c1cccc(-c3ccccc3)c1)CC2`, the activation was inactive: -6.49%.
To `CC(C)(C)c1ccc(S(=O)(=O)/C=C/C#N)cc1` belongs inactive: -19.5%; to `CN(C)Cc1ccccc1-c1cncnc1Nc1ccc(F)cc1`, inactive: -17.9%; to `CCNc1ncc2ncc(=O)n(CCc3ccccc3)c2n1`, inactive: 0.674%.
Under `COc1nccnc1NS(=O)(=O)c1ccc(N)cc1` stands inactive: -16.7%; under `COc1cccc(Nc2ncc3nc(CCc4ccccc4)c(=O)n(C[C@H]4CCCO4)c3n2)c1`, inactive: -4.07%; under `CCCC(=O)O[C@]1(C(=O)COC(=O)CC)[C@@H](C)C[C@H]2[C@@H]3CCC4=CC(=O)C=C[C@]4(C)[C@@]3(F)[C@@H](O)C[C@@]21C`, inactive: -13.4%.
Under `COc1ncc2nc(-c3ccc(F)cc3)c(=O)n(Cc3ccc(F)cc3)c2n1` stands inactive: -2.57%; under `Cc1nc2cnc(N3CCN(C)CC3)nc2n(Cc2cccs2)c1=O`, inactive: -7.39%.
Consider `COC(=O)c1cc(CNC(=O)c2ccccn2)cc(NC(=O)c2ccccc2OC)c1`, for which the activation was inactive: -3.4%.
Under `C/C=C1\NC(=O)[C@H]2CSSCC/C=C/[C@H](CC(=O)N[C@H](C(C)C)C(=O)N2)OC(=O)C(C(C)C)NC1=O` (some centres undefined) stands inactive: -20%; under `CC1=C(C(=O)OC(C)C)[C@@H](c2cccc3nonc23)C([N+](=O)[O-])=C(C)N1`, inactive: -1.47%.
To `C[C@@H](CCc1ccc(O)cc1)NCCc1ccc(O)c(O)c1` belongs inactive: -24.8%.
To `Cc1cccc(CNc2nc(-c3ccc4c(c3)OCO4)nc3ccccc23)c1` belongs inactive: 5.64%; to `CC(C)OC(=O)C(C)(C)Oc1ccc(C(=O)c2ccc(Cl)cc2)cc1`, inactive: -13.7% and inactive: -5.56% and inactive: -28.8%.
With `COc1ccccc1-c1oc2ccccc2c(=O)c1O`, the activation is inactive: 1.38%.
For the molecule `Cc1cc(C(=O)N(Cc2cc3cc4c(cc3nc2N2CCOCC2)CCC4)CC2CCCO2)c(=O)[nH]c1C` (centres undefined), the activation was inactive: -6.66%.
To `CCNC(=O)[C@H]1O[C@H](n2cnc3c(N)nc(NCCc4ccc(CCC(=O)O)cc4)nc32)[C@@H](O)[C@@H]1O` belongs inactive: -18.4%.
Under `CN(C(=O)c1cnn(-c2nccc(-c3ccccc3C(F)(F)F)n2)c1C1CC1)C1CCOC1` (centres undefined) stands inactive: 2.29%; under `O=C(NCc1ccon1)c1ccc(-c2csc3ccccc23)nc1N1CCC(N2CCCC(CO)C2)CC1` (centres undefined), inactive: -23.3%; under `Cn1c(=O)c(-c2ccc(F)cc2)nc2cnc(N3CCOCC3)nc21`, inactive: 3.8%.
Under `COc1ccc(-n2c(=O)c(-c3cccs3)nc3cnc(N4CCN(C)CC4)nc32)cc1` stands inactive: 8.99%; under `C=C1CC/C=C(\C)CC[C@@H]2[C@@H]1CC2(C)C`, inactive: -16%; under `O=C(c1cc(C(F)(F)F)cc(C(F)(F)F)c1)N1CCC2(CC1)CCN(c1ccncc1)CC2`, inactive: -18.8%.
With `COC(=O)c1c(C)cc(OC)cc1O`, the activation is inactive: -12.6%.
Under `NC(=O)CC[C@H](N)C(=O)O` stands inactive: -2.46% and inactive: -31.7%; under `O=C1c2ccccc2C(=O)C1c1ccc(Br)cc1`, inactive: 2.72%; under `O=S(=O)(O)Oc1ccc(C(c2ccc(OS(=O)(=O)O)cc2)c2ccccn2)cc1`, inactive: -4.26%.
Under `CC[C@H]1OC(=O)[C@H](C)[C@@H](O[C@H]2C[C@@](C)(OC)[C@@H](O)[C@H](C)O2)C(C)[C@@H](O[C@@H]2O[C@H](C)C[C@H](N(C)C)[C@@H]2O)[C@](C)(OC)C[C@@H](C)C(=O)[C@H](C)[C@@H](O)[C@]1(C)O` (some centres undefined) stands inactive: 10.2%; under `Cc1nc2ccccc2nc1CN1CCOc2ccc(C3(O)CCN(c4ccccc4F)CC3)cc2C1`, inactive: -14%.
To `O=C(c1ccco1)N1CCC2(CC1)CN(c1ccccn1)C2` belongs inactive: -0.275%.
Consider `CCn1c(-c2cccc(OC)c2)nc2cc(NC(C)=O)cc(C(=O)N3CCC[C@H]3C(=O)OC)c21`, for which the activation is inactive: -2.69%.
Under `CC(=O)OCC(=O)C1CCC2C3CCC4=CC(=O)CC[C@@]4(C)C3CC[C@]12C` (some centres undefined) stands inactive: -9.81%.
Under `Cc1cccc(CNc2ccnc(-c3ccc(C(=O)N(C)C)cc3)n2)c1` stands inactive: -34.4%.
To `FC(F)(F)c1ccccc1-c1nccc(-n2ccnc2)n1` belongs inactive: -9.06%.
